In patent publication US11178870B2 (priority 2017, dated 2021):

Columns and labels:
[1] = system: Phytophthora infestans; assay type: in vivo; conditions: for Test F control value: Late blight on tomato; for Test F control value (late blight on tomato): class of control value, Table 7
[2] = system: Magnaporthe grisea; assay type: in vivo; conditions: for Test A control value: Blast on rice; for Test A control value (blast on rice): class of control value, Table 7
[3] = system: Colletotrichum orbiculare; conditions: for Test H control value (anthracnose on cucumber): 250 ppm spray, 2.5 ml/pot, investigated 6 to 10 days after inoculation

Row | SMILES | Test F control value [1] | Test A control value [2] | other results
1 | CCN1C(=O)CCC(n2cccn2)=C1c1c(F)cccc1F [Compound 30] | L (L shows the control value of 50% or less) | – | –
2 | CCn1c(-c2c(F)cccc2F)c(-c2ocnc2I)cc(Cl)c1=O [Compound 74] | L (L shows the control value of 50% or less) | H (H shows the control value more than 50%) | –
3 | CCn1c(-c2c(F)cccc2F)c(-c2ocnc2F)cc(Cl)c1=O [Compound 51] | L (L shows the control value of 50% or less) | H (H shows the control value more than 50%) | –
4 | CCn1c(-c2c(F)cccc2F)c(-c2sccc2Br)ccc1=O [Compound 364] | – | – | control value, Test H (anthracnose on cucumber) ([3]; 250 ppm sprayed (2.5 ml/pot) before inoculation, assessed 6 to 10 days after inoculation): H (H shows the control value more than 50%); control value, Test A (blast on rice) ([2]; Table 7, Test A): H (H shows the control value more than 50%); control value, Test F (late blight on tomato) ([1]; Table 7, Test F): L (L shows the control value of 50% or less)
5 | CCn1c(-c2c(F)cc(OC)cc2F)c(-c2cccnc2Cl)cc(Br)c1=O [Compound 81] | L (L shows the control value of 50% or less) | H (H shows the control value more than 50%) | –
6 | CCn1c(-c2c(F)cccc2F)c(-c2cccnc2Cl)cc(I)c1=O [Compound 65] | L (L shows the control value of 50% or less) | H (H shows the control value more than 50%) | –
7 | O=c1c(Cl)cc(-c2cccnc2Cl)c(-c2c(F)cc(F)cc2F)n1CC(F)F [Compound 68] | L (L shows the control value of 50% or less) | H (H shows the control value more than 50%) | –
8 | CCn1c(-c2c(F)cccc2F)c(-c2sc(Br)cc2Cl)cc(Br)c1=O [Compound 398] | – | – | Test H control value (anthracnose on cucumber) [3]: H (H shows the control value more than 50%); Test A control value (blast on rice) [2]: H (H shows the control value more than 50%); Test F control value (late blight on tomato) [1]: L (L shows the control value of 50% or less)
9 | CCn1c(-c2c(F)cccc2F)c(-c2cnco2)cc(Cl)c1=O [Compound 42] | L (L shows the control value of 50% or less) | L (L shows the control value of 50% or less) | –
10 | CCn1c(-c2c(F)cccc2F)c(-c2ccsc2Br)cc(Cl)c1=O [Compound 45] | L (L shows the control value of 50% or less) | H (H shows the control value more than 50%) | –
11 | CCn1c(-c2c(F)cc(OC)cc2F)c(-c2cnco2)cc(Cl)c1=O [Compound 37] | L (L shows the control value of 50% or less) | H (H shows the control value more than 50%) | –
12 | CCn1c(-c2c(F)cc(F)cc2F)c(-n2ncnc2I)cc(Cl)c1=O [Compound 48] | L (L shows the control value of 50% or less) | H (H shows the control value more than 50%) | –
13 | O=c1c(Cl)cc(-c2ccsc2Cl)c(-c2c(F)cccc2F)n1CC(F)F [Compound 404] | – | – | Test H control value (anthracnose on cucumber) [3]: L (L shows the control value of 50% or less); Test A control value (blast on rice) [2]: H (H shows the control value more than 50%); Test F control value (late blight on tomato) [1]: L (L shows the control value of 50% or less)
14 | Cn1c(-c2ccc(F)cc2F)c(-n2cc(F)cn2)cc(Cl)c1=O [Compound 464] | – | – | Test H control value (anthracnose on cucumber) [3]: H (H shows the control value more than 50%); Test A control value (blast on rice) [2]: H (H shows the control value more than 50%); Test F control value (late blight on tomato) [1]: L (L shows the control value of 50% or less)
15 | CCn1c(-c2c(F)cc(F)cc2F)c(-n2cc(Br)cn2)cc(Br)c1=O [Compound 77] | L (L shows the control value of 50% or less) | H (H shows the control value more than 50%) | –
16 | CCn1c(-c2c(F)cccc2F)c(-n2cc(Cl)cn2)ccc1=O [Compound 52] | L (L shows the control value of 50% or less) | H (H shows the control value more than 50%) | –
17 | CCn1c(-c2c(F)cc(F)cc2F)c(-n2ncnc2Br)cc(Br)c1=O [Compound 46] | L (L shows the control value of 50% or less) | H (H shows the control value more than 50%) | –
18 | O=c1ccc(-n2cc(F)cn2)c(-c2ccc(F)cc2Br)n1CC(F)F [Compound 447] | – | – | Test H control value (anthracnose on cucumber) [3]: L (L shows the control value of 50% or less); Test A control value (blast on rice) [2]: H (H shows the control value more than 50%); Test F control value (late blight on tomato) [1]: L (L shows the control value of 50% or less)
19 | CCn1c(-c2c(F)cccc2Br)c(-n2cc(F)cn2)cc(Cl)c1=O [Compound 391] | – | – | Test H control value (anthracnose on cucumber) [3]: L (L shows the control value of 50% or less); Test A control value (blast on rice) [2]: H (H shows the control value more than 50%); Test F control value (late blight on tomato) [1]: H (H shows the control value more than 50%)
20 | CCn1c(-c2c(F)cc(F)cc2F)c(-n2nc(C)c(Br)c2C)ccc1=O [Compound 76] | L (L shows the control value of 50% or less) | H (H shows the control value more than 50%) | –
